Test results as given in US12123010B2, “Plants having increased tolerance to herbicides” (BASF SE, priority 2017, dated 2024).

Assays:
Assay type in all cases: in vivo
[1] = system: Transgenic T2 or T3 Soybean plants harbouring PPO inhibitor tolerance trait; experiment: Soybean Trial, post spray, injury score 14 DAT
Procedure: (§1) Soybean cv Jake is transformed as previously described by Siminszky et al., Phytochem Rev. 5:445-458 (2006). After regeneration, transformants are transplanted to soil in small pots, placed in growth chambers (16 hr day/8 hr night; 25° C. day/23° C. night; 65% relative humidity; 130-150 microE m-2 s-1) and subsequently tested for the presence of the T-DNA via Taqman analysis. After a few weeks, healthy, transgenic positive, single copy events are transplanted to larger pots and allowed to grow in the growth chamber. An optimal shoot for cutting is about 3-4 inches tall, with at least two nodes present. Each cutting is taken from the original transformant (mother plant) and dipped into rooting hormone powder (indole-3-butyric acid, IBA). The cutting is then placed in oasis wedges inside a bio-dome. The mother plant is taken to maturity in the greenhouse and harvested for seed. Wild type cuttings are also taken simultaneously to serve as negative controls. The cuttings are kept in the bio-dome for 5-7 days and then transplanted to 3 inch pots and then acclimated in the growth chamber for two more days. Subsequently, the cuttings are transferred to the greenhouse, acclimated for approximately 4 days prior to spray. T0 or 2-week old T1 plants are sprayed with a treatment of the uracilpyridines as disclosed SUPRA and photosynthesis inhibitor diuron as negative control. Herbicide injury evaluations are taken at 2, 7, 14 and 21 days after treatment.
Transgenic T2 or T3 Soybean plants harbouring PPO inhibitor tolerance trait, were sprayed post with the indicated amount of uracilpyridine+1% (v/v) MSO. Evaluation performed 14 Days After Treatment (DAT) and shown as injury (0-9) relative to non-transgenic treated plants. Injury Scale: 0-9, 0=no imjury, 9=maximum injury. Note: segregating lines.

[2] = system: Transgenic T2 Corn plants harbouring PPO inhibitor tolerance trait and J553 non transgenic; experiment: Corn Trial, post spray, injury score 14 DAT
Procedure: Immature embryos are transformed according to the procedure outlined in Peng et al. (WO2006/136596). Plants are tested for the presence of the T-DNA by Taqman analysis with the target being the nos terminator which is present in all constructs. Healthy looking plants are sent to the greenhouse for hardening and subsequent spray testing. The plants are individually transplanted into MetroMix 360 soil in 4″ pots. Once in the greenhouse (day/night cycle of 27° C./21° C. with 14 hour day length supported by 600 W high pressure sodium lights), they are allowed to grow for 14 days. TO or T1 plants are sprayed with a treatment of the uracilpyridines as disclosed SUPRA and photosynthesis inhibitor diuron as negative control. Herbicide injury evaluations are taken at 7, 14 and 21 days after treatment. Herbicide injury evaluations are taken 2, 7, 14 and 21 days post-spray to look for injury to new growth points and overall plant health. The top survivors are transplanted into gallon pots filled with MetroMix 360 for seed production.
Transgenic T2 Corn plants harbouring PPO inhibitor tolerance trait, were sprayed post with the indicated amount of uracilpyridine+1% (v/v) MSO. Evaluation performed 14 Days After Treatment (DAT) and shown as injury (0-9) relative to non-transgenic treated plants.
Injury Scale: 0-9, 0=no injury, 9=maximum injury. Note: segregating lines.

[3] = system: Transgenic T4 Soybean plants harbouring PPO inhibitor tolerance trait; experiment: T4 Soybean post spray, injury score 7 DAT
Procedure: as §1
Transgenic T4 Soybean plants harbouring PPO inhibitor tolerance trait, were sprayed post with the indicated amount of uracilpyridine+1% (v/v) MSO. Evaluation performed 7 Days After Treatment (DAT) and shown as injury (0-9) relative to non-transgenic treated plants. Injury Scale: 0-9, 0=no imjury, 9=maximum injury.

[4] = Jake non transgenic, 25 g/ha + 1% (v/v) MSO
[5] = Jake non transgenic, 50 g/ha + 1% (v/v) MSO
[6] = Jake non transgenic, 100 g/ha + 1% (v/v) MSO
[7] = corn J553 non transgenic, 25 g/ha + 1% MSO
[8] = corn J553 non transgenic, 50 g/ha + 1% MSO
[9] = corn J553 non transgenic, 100 g/ha + 1% MSO
[10] = Jake non-transgenic, 25 g/ha + 1% (v/v) MSO
[11] = Jake non-transgenic, 50 g/ha + 1% (v/v) MSO
[12] = Jake non-transgenic, 100 g/ha + 1% (v/v) MSO
[13] = L397E + F420V Event 3, 50 g/ha + 1% (v/v) MSO
[14] = L397Q + F420M Event 5, 25 g/ha + 1% (v/v) MSO
[15] = L397Q + F420M Event 5, 50 g/ha + 1% (v/v) MSO
[16] = L397Q + F420M Event 5, 100 g/ha + 1% (v/v) MSO
[17] = R128A + F420I Event 2, 100 g/ha + 1% (v/v) MSO
[18] = R128A + F420L Event 1, 50 g/ha + 1% (v/v) MSO
[19] = R128A + F420L Event 1, 100 g/ha + 1% (v/v) MSO
[20] = R128A + F420I Event 2, 50 g/ha + 1% (v/v) MSO

| SMILES | injury (0-9) [1, 4] | injury (0-9) [1, 5] | injury (0-9) [1, 6] | injury (0-9) [2, 7] | injury (0-9) [2, 8] | injury (0-9) [2, 9] | injury (0-9) [3, 10] | injury (0-9) [3, 11] | injury (0-9) [3, 12] | injury (0-9) [3, 13] | injury (0-9) [3, 14] | injury (0-9) [3, 15] | injury (0-9) [3, 16] | injury (0-9) [3, 17] | injury (0-9) [3, 18] | injury (0-9) [3, 19] | injury (0-9) [3, 20] | other results |
| --- | --- | --- | --- | --- | --- | --- | --- | --- | --- | --- | --- | --- | --- | --- | --- | --- | --- | --- |
| CCOC(=O)COc1ccccc1Oc1nc(-n2c(=O)cc(C(F)(F)F)n(C)c2=O)c(F)cc1Cl [Uracilpyridine 4, ethyl 2-[2-[[3-chloro-5-fluoro-6-[3-methyl-2,6-dioxo-4-(trifluoromethyl)pyrimidin-1-yl]-2-pyridyl]oxy]phenoxy]acetate] | 9 (Plant is dead.) | 9 (Plant is dead.) | 9 (Plant is dead.) | 9 (Plant is dead.) | 9 (Plant is dead.) | 9 (Plant is dead.) |  |  |  |  |  |  |  |  |  |  |  | injury (0-9) ([1]; L397E, F420M Event 2, 100 g/ha + 1% (v/v) MSO): 1 (Minimal injury, only a few patches of leaf injury or chlorosis.); injury (0-9) ([1]; L397Q, F420M Event 3, 50 g/ha + 1% (v/v) MSO): 9 (Plant is dead.); injury (0-9) ([2]; corn R128A, F420I Event 1, 25 g/ha + 1% MSO, individual plants, segregating lines): 0 (No Injury); injury (0-9) ([2]; corn R128A, F420L Event 2, 25 g/ha + 1% MSO): 0 (No Injury) |
| CCOC(=O)COc1ccccc1Oc1nc(-n2c(=O)cc(C(F)(F)F)n(C)c2=O)c(F)cc1Br [Uracilpyridine 22, ethyl 2-[2-[[3-bromo-5-fluoro-6-[3-methyl-2,6-dioxo-4-(trifluoromethyl)pyrimidin-1-yl]-2-pyridyl]oxy]phenoxy]acetate] |  |  |  |  |  |  | 9 (Plant is dead.) | 9 (Plant is dead.) | 9 (Plant is dead.) | 0 (No Injury) | 1 (Minimal injury, only a few patches of leaf injury or chlorosis.) and 2 | 3 and 2 and 1 (Minimal injury, only a few patches of leaf injury or chlorosis.) | 4 | 2 and 3 and 1 (Minimal injury, only a few patches of leaf injury or chlorosis.) | 1 (Minimal injury, only a few patches of leaf injury or chlorosis.) and 2 | 1 (Minimal injury, only a few patches of leaf injury or chlorosis.) and 2 |  |  |
| Cn1c(C(F)(F)F)cc(=O)n(-c2nc(Oc3cccnc3OCC(=O)NS(C)(=O)=O)c(Cl)cc2F)c1=O [Uracilpyridine 20, 2-[[3-[[3-chloro-5-fluoro-6-[3-methyl-2,6-dioxo-4-(trifluoromethyl)pyrimidin-1-yl]-2-pyridyl]oxy]-2-pyridyl]oxy]-N-methylsulfonyl-acetamide] |  |  |  |  |  |  | 9 (Plant is dead.) | 9 (Plant is dead.) | 9 (Plant is dead.) |  | 4 and 3 | 3 and 4 | 4 and 7 | 4 | 3 and 2 and 1 (Minimal injury, only a few patches of leaf injury or chlorosis.) | 3 and 4 and 5 | 3 and 2 | injury (0-9) ([3]; R128A + F420I Event 2, 25 g/ha + 1% (v/v) MSO): 2 and 1 (Minimal injury, only a few patches of leaf injury or chlorosis.) |
| Cn1c(C(F)(F)F)cc(=O)n(-c2nc(Oc3ccccc3OCC(=O)NS(C)(=O)=O)c(Cl)cc2F)c1=O [Uracilpyridine 10, 2-[2-[[3-chloro-5-fluoro-6-[3-methyl-2,6-dioxo-4-(trifluoromethyl)pyrimidin-1-yl]-2-pyridyl]oxy]phenoxy]-N-methylsulfonyl-acetamide] |  |  |  |  |  |  | 9 (Plant is dead.) | 9 (Plant is dead.) | 9 (Plant is dead.) |  | 3 and 5 | 4 | 4 and 5 | 2 and 3 |  | 2 and 1 (Minimal injury, only a few patches of leaf injury or chlorosis.) | 1 (Minimal injury, only a few patches of leaf injury or chlorosis.) and 2 |  |
| CCOC(=O)COc1ncccc1Oc1nc(-n2c(=O)cc(C(F)(F)F)n(C)c2=O)c(F)cc1Cl [Uracilpyridine 2, ethyl 2-[[3-[[3-chloro-5-fluoro-6-[3-methyl-2,6-dioxo-4-(trifluoromethyl)pyrimidin-1-yl]-2-pyridyl]oxy]-2-pyridyl]oxy]acetate] | 9 (Plant is dead.) | 9 (Plant is dead.) | 9 (Plant is dead.) | 9 (Plant is dead.) | 9 (Plant is dead.) | 9 (Plant is dead.) |  |  |  |  |  |  |  |  |  |  |  | injury (0-9) ([1]; L397Q, F420M Event 3, 25 g/ha + 1% (v/v) MSO): 9 (Plant is dead.); injury (0-9) ([1]; L397Q, F420M Event 3, 100 g/ha + 1% (v/v) MSO): 1 (Minimal injury, only a few patches of leaf injury or chlorosis.); injury (0-9) ([2]; corn R128A, F420L Event 2, 50 g/ha + 1% MSO): 1 (Minimal injury, only a few patches of leaf injury or chlorosis.); injury (0-9) ([2]; corn R128A, F420L Event 2, 100 g/ha + 1% MSO): 1 (Minimal injury, only a few patches of leaf injury or chlorosis.) |
| COC(=O)COc1ccccc1Oc1nc(-n2c(=O)cc(C(F)(F)F)n(C)c2=O)c(F)cc1Cl [Uracilpyridine 21, methyl 2-[2-[[3-chloro-5-fluoro-6-[3-methyl-2,6-dioxo-4-(trifluoromethyl)pyrimidin-1-yl]-2-pyridyl]oxy]phenoxy]acetate] |  |  |  |  |  |  | 9 (Plant is dead.) | 9 (Plant is dead.) | 9 (Plant is dead.) | 0 (No Injury) | 3 and 2 | 3 | 3 | 3 and 2 | 1 (Minimal injury, only a few patches of leaf injury or chlorosis.) and 2 |  | 2 and 1 (Minimal injury, only a few patches of leaf injury or chlorosis.) | injury (0-9) ([3]; L397E + F420V Event 3, 25 g/ha + 1% (v/v) MSO): 0 (No Injury) |

Where “and” joins values, the source holds several entries; their conditions need not be identical. Equal entries are not always repeated.
